# Test results taken from the RNAGym collection of RNA variant scans (doi:10.1093/nar/gkz1192).
# The source gives no read counts; variants with many changes may rest on few reads.
# B1: CPEB3 Ribozyme (parent)
# chain: UAACAGGGGGCCACAGCAGAAGCGUUCACGUCGCAGCCCCUGUCAGAUUCUGGUGAAUCUGCGAAUUCUGCUGUAUAUCUC
# Variants of: B1
# Experiment: self-cleavage, relative activity (ratio to wild type); higher = more cleavage; in vitro, sequencing
# How it was run: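 Relative activity was defined as the cleaved/total read fraction for a variant divided by the same fraction for the unmutated ribozyme. CPEB3 self-cleaving ribozyme libraries were made by rounds of error-prone PCR, barcoded, and transcribed in vitro with T7 RNA polymerase for 5 hours at 37°C, and cleavage ran through transcription plus a 15 min DNase I step before EDTA. Illumina sequencing of template-switched reverse transcripts gave the reads, and DNA sequencing mapped the barcodes. Averages come from three batches, using variants with at least 5 reads.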
row,Variant,self-cleavage
1,UAACAGGGGGCCACAGCAGAAGCGUUCACGUCGCAGCCCCUGUCAGAUUCAGGUGAAUCUGCGAAUUCUGCCGUAUAUCUA [U51A U72C C81A],0.95
2,UAACAGGGGGCCACAGCAGAAGCGUUCACGUCGCAGCCCCUGUCAGAUUCAGGUGAAUCUGCGAAUUCUGCUGAUUAUCUC [U51A U74A A75U],1.26
3,UAACAGGGGGCCACAGCAGAAGCGUUCACGUCGCAGCCCCUGUCAGAUUCAGGUGAAUCUGCGAAUUCUGCUGUAUACCCC [U51A U78C U80C],0.7
4,UAACAGGGGGCCACAGCAGAAGCGUUCACGUCGCAGCCCCUGUCAGAUUCCGGUGCAUCUGCGAAUUCUGCUGCAUAUCUC [U51C A56C U74C],0.91
5,UAACAGGGGGCCACAGCAGAAGCGUUCACGUCGCAGCCCCUGUCAGAUUCCGGUGGAUCUGCGAAUUCUGCUGUAUAUUUC [U51C A56G C79U],1.23
6,UAACAGGGGGCCACAGCAGAAGCGUUCACGUCGCAGCCCCUGUCAGAUUCCGGUGGAACUGCGAAUUCUGCUGUAUAUCUC [U51C A56G U58A],0.5
7,UAACAGGGGGCCACAGCAGAAGCGUUCACGUCGCAGCCCCUGUCAGAUUCCGGUGGAUCUGCGAAUCCUGCCGCAUAUCUC [U51C A56G U67C U72C U74C],0.46
8,UAACAGGGGGCCACAGCAGAAGCGUUCACGUCGCAGCCCCUGUCAGAUUCCGGUGGAUCUGCGAAUUCGGUUGUAUAUCUC [U51C A56G U69G C71U],0.54
9,UAACAGGGGGCCACAGCAGAAGCGUUCACGUCGCAGCCCCUGUCAGAUUCCGGUGGAUCUGCGAAUUCUGCUGUAUAUCAC [U51C A56G U80A],1.04
10,UAACAGGGGGCCACAGCAGAAGCGUUCACGUCGCAGCCCCUGUCAGAUUCCGGUGUAUCUGCGAAUUCUGCUGCAUAUCUC [U51C A56U U74C],1.03
11,UAACAGGGGGCCACAGCAGAAGCGUUCACGUCGCAGCCCCUGUCAGAUUCCGGUGAGUCUGCGGAUUCUGCUGUAUAUCUC [U51C A57G A64G],0.74
12,UAACAGGGGGCCACAGCAGAAGCGUUCACGUCGCAGCCCCUGUCAGAUUCCGGUGAGUCUGCGUACUCUGCUGUAUAUCUC [U51C A57G A64U U66C],0.14
13,UAACAGGGGGCCACAGCAGAAGCGUUCACGUCGCAGCCCCUGUCAGAUUCCGGUGAGACCGCGAAUUCUGCUGUAUAUCCC [U51C A57G U58A U60C U80C],0.24
14,UAACAGGGGGCCACAGCAGAAGCGUUCACGUCGCAGCCCCUGUCAGAUUCCGGUGAGUCUGCGAAUUCCGCAGUAUAUCCC [U51C A57G U69C U72A U80C],0.75
15,UAACAGGGGGCCACAGCAGAAGCGUUCACGUCGCAGCCCCUGUCAGAUUCCGGUGAGUCUGCGAAUUCUGCAGUAUAUCCC [U51C A57G U72A U80C],0.59
16,UAACAGGGGGCCACAGCAGAAGCGUUCACGUCGCAGCCCCUGUCAGAUUCCGGUGAGUCUGCGAAUUCUGCUGUAUAUCCC [U51C A57G U80C],0.99
17,UAACAGGGGGCCACAGCAGAAGCGUUCACGUCGCAGCCCCUGUCAGAUUCCGGUGAUUCUGGGAAUUCUGCUGUAUAUCUC [U51C A57U C62G],0.2

row,Variant,self-cleavage
1,UAACAGGGGGCCACAGCAGAAGCGUUCACGUCGCAGCCCCUGUCAGAUUCCGGUGAUUCUGCUAAUUCUGCUGUAUAUCUC [U51C A57U G63U],0.54
2,UAACAGGGGGCCACAGCAGAAGCGUUCACGUCGCAGCCCCUGUCAGAUUCCGGUGAAUCUGCGGGUUCUACUGUAUAUCUC [U51C A64G A65G G70A],0.25
3,UAACAGGGGGCCACAGCAGAAGCGUUCACGUCGCAGCCCCUGUCAGAUUCCGGUGAAUCUGCGUAUUCUGCUGUAUAUCCC [U51C A64U U80C],0.53
4,UAACAGGGGGCCACAGCAGAAGCGUUCACGUCGCAGCCCCUGUCAGAUUCCGGUGAAUCUGCGAGUUCUGCAGUAUAUCUC [U51C A65G U72A],0.51
5,UAACAGGGGGCCACAGCAGAAGCGUUCACGUCGCAGCCCCUGUCAGAUUCCGGUGAAUCUGCGAUUCCUGCUGCAUAUCAC [U51C A65U U67C U74C U80A],0.29
6,UAACAGGGGGCCACAGCAGAAGCGUUCACGUCGCAGCCCCUGUCAGAUUCCGGUGAAUCUGCGAUUUCUGCUGUAUAUCAC [U51C A65U U80A],0.32
7,UAACAGGGGGCCACAGCAGAAGCGUUCACGUCGCAGCCCCUGUCAGAUUCCGGUGAAUCUGCGAAUUCUGCUGUUUACCUC [U51C A75U U78C],1.16
8,UAACAGGGGGCCACAGCAGAAGCGUUCACGUCGCAGCCCCUGUCAGAUUCCGGUGAAUCUGCGAAUUCUGCUGUAUCUUUC [U51C A77C C79U],1.13
9,UAACAGGGGGCCACAGCAGAAGCGUUCACGUCGCAGCCCCUGUCAGAUUCCGGUGAAUCUGCGAAUUCUGCUGUAUGCCUC [U51C A77G U78C],0.75
10,UAACAGGGGGCCACAGCAGAAGCGUUCACGUCGCAGCCCCUGUCAGAUUCCGGUGAAUCUGAGAAUCCUGCUGUAUAUCUC [U51C C62A U67C],0.31
11,UAACAGGGGGCCACAGCAGAAGCGUUCACGUCGCAGCCCCUGUCAGAUUCCGGUGAAUCUGUGAGUCCUGCUGUAUAUCUC [U51C C62U A65G U67C],0.4
12,UAACAGGGGGCCACAGCAGAAGCGUUCACGUCGCAGCCCCUGUCAGAUUCCGGUGAAUCUGCGAAUUAUGCUGUACAUCUC [U51C C68A U76C],0.56
13,UAACAGGGGGCCACAGCAGAAGCGUUCACGUCGCAGCCCCUGUCAGAUUCCGGUGAAUCUGCGAAUUCUGAUGUAUAUUUC [U51C C71A C79U],0.32
14,UAACAGGGGGCCACAGCAGAAGCGUUCACGUCGCAGCCCCUGUCAGAUUCCCGUUAAUCUGCGAAUUCUGCUGGAUUACUC [U51C G52C G55U U74G A77U U78A],1.16
15,UAACAGGGGGCCACAGCAGAAGCGUUCACGUCGCAGCCCCUGUCAGAUUCCCGUGAACCUGCGAAUUCUGCCGCAUAUCUC [U51C G52C U58C U72C U74C],0.5
16,UAACAGGGGGCCACAGCAGAAGCGUUCACGUCGCAGCCCCUGUCAGAUUCCCGUGAAUCUGCGAAUUCUGCUGCAUAUCUC [U51C G52C U74C],1.23
17,UAACAGGGGGCCACAGCAGAAGCGUUCACGUCGCAGCCCCUGUCAGAUUCCGCUGAAUCUGCGAAUUCAGCUGUAUAUCUC [U51C G53C U69A],0.5
